Measurements as given in the supplement of paper PMC3334620.
Over roughly 33,000 sequences, “E-score (-0.5 to 0.5)” has its median near -0.012; the highest 2% begin near 0.27. The list shows a part of the results.

These sequences were tested against T1, Vhr1 (UniProt P40522) (assay: PBM E-score (8-mer binding enrichment) (E-score (-0.5 to 0.5)); higher = stronger / more preferred TF binding; most listed sequences are background and not binding sites). Conditions: protein concentration: 200 nM; construct: GST-full length.
T1 sequence: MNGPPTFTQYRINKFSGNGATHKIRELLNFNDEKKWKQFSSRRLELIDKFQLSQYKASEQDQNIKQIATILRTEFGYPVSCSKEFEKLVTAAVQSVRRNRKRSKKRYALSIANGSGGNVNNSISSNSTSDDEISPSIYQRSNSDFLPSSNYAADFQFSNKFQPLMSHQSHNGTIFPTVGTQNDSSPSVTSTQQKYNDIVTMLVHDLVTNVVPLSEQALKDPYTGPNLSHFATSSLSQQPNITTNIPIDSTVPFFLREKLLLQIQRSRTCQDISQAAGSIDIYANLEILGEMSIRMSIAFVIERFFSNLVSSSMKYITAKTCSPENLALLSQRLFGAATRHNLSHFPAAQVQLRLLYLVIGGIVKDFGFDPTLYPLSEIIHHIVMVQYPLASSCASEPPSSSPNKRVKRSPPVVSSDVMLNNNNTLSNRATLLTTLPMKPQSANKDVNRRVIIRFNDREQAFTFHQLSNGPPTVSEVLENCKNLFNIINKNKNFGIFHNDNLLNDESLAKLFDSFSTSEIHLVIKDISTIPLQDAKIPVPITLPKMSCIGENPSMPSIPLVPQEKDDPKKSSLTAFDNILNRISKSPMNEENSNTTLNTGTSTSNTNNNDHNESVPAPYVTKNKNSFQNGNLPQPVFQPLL
Outline: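 Full-length yeast transcription factors or their DNA-binding domains, GST-tagged and expressed with PURExpress, were applied at about 100-200 nM to universal all-10-mer Agilent arrays. These arrays had been made double-stranded by primer extension on fresh or once-stripped slides. Detection used fluorescent anti-GST, normalisation used masliner, and E-scores for ungapped eight-base words pooled with reverse complements came from the Universal PBM Analysis Suite.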

Going from CAACCCCC to GCCTACGA, the “PBM E-score” value rises from -0.127 to 0.0412.

First: ACCACGCC
Second: TCGACCGA
The “PBM E-score” value of the first is higher: -0.0986 for the first, -0.156 for the second.

Going from GTATCGTA to ACGAAACG, the “PBM E-score” value falls from -0.012 to -0.0408.

Compared with CACTCAAC, GGTGGATA is higher in “PBM E-score” value: 0.0922 for the first, 0.0996 for the second.

First: TAGATAAA
Second: CGCTCGAA
The “PBM E-score” value of the first is higher: 0.0361 for the first, -0.201 for the second.

First: GACAAGTA
Second: ACAAACCG
The “PBM E-score” value of the first is lower: 0.0217 for the first, 0.0394 for the second.

Going from AAACCACA to AGAGCTTC, the “PBM E-score” value falls from 0.248 to -0.232.

Compared with AGGTCCTG, CCGTTTTA is higher in “PBM E-score” value: -0.0314 for the first, 0.015 for the second.

First: CCAATTGG
Second: GACTAACC
The “PBM E-score” value of the first is lower: -0.0857 for the first, 0.247 for the second.

Going from GCTGCTTA to ACATAGTG, the “PBM E-score” value rises from -0.0886 to 0.314.

First: ATTCACTG
Second: AGCGTGCA
The “PBM E-score” value of the first is lower: -0.0337 for the first, 0.0784 for the second.

Going from CTAATGGC to CGGTGGGA, the “PBM E-score” value rises from -0.0956 to 0.151.

Compared with CCCACAAC, ATAGGCCA is lower in “PBM E-score” value: -0.0836 for the first, -0.159 for the second.

Compared with AAAACTCT, CACTCGCA is higher in “PBM E-score” value: -0.22 for the first, 0.0722 for the second.

First: AGACGTCC
Second: ATCTGAAA
The “PBM E-score” value of the first is lower: -0.106 for the first, -0.0672 for the second.

Going from CCCTGTAG to CACCGGGG, the “PBM E-score” value rises from -0.135 to -0.0793.

Going from GATACTGC to ATGCAGCG, the “PBM E-score” value falls from 0.188 to -0.0944.

Compared with AAAACGAC, AGAATAGG is higher in “PBM E-score” value: -0.0474 for the first, 0.026 for the second.

First: AGAGGATA
Second: ATGATCCG
The “PBM E-score” value of the first is lower: -0.168 for the first, 0.0961 for the second.

Going from AGTGGTAC to CCTGCCAG, the “PBM E-score” value falls from -0.0391 to -0.23.

Going from ACGTTCCG to GTTCCGGA, the “PBM E-score” value rises from -0.257 to 0.0125.

Compared with AATCCTAT, CCAGGTTC is lower in “PBM E-score” value: 0.1 for the first, -0.14 for the second.

First: CCCAATCC
Second: CCATCAGC
The “PBM E-score” value of the first is higher: 0.0155 for the first, 0.0127 for the second.

First: GGAGACAA
Second: CTTTCCTC
The “PBM E-score” value of the first is higher: 0.151 for the first, -0.244 for the second.

Compared with GCGACCCA, CCCCCCGC is lower in “PBM E-score” value: 0.116 for the first, -0.0279 for the second.

Compared with GGCAGGCC, GCTGTGCA is higher in “PBM E-score” value: -0.214 for the first, -0.0963 for the second.

First: CAAAGGTG
Second: GGCCAGCA
The “PBM E-score” value of the first is higher: 0.136 for the first, -0.0819 for the second.

Going from CAAGGGAG to AAGCCGGT, the “PBM E-score” value falls from -0.00031 to -0.0262.

Going from GCGGGAGC to ATCCCCAT, the “PBM E-score” value rises from -0.0214 to 0.115.

Compared with ATGTATGC, CCGTACGC is lower in “PBM E-score” value: 0.181 for the first, -0.0297 for the second.

Going from ATCTAATA to CCCCATCA, the “PBM E-score” value falls from 0.0551 to -0.0252.

Compared with CAGCTATC, ACTAGACA is higher in “PBM E-score” value: -0.172 for the first, 0.148 for the second.

Going from CGTAGATC to TATTGTGA, the “PBM E-score” value rises from -0.0658 to 0.209.

Going from AGCTTCGC to CGTCCTAG, the “PBM E-score” value rises from -0.223 to -0.181.

Going from AAAGACTA to CTAGGGAC, the “PBM E-score” value rises from -0.109 to -0.0696.

Going from CAGCCATA to CACAGAAC, the “PBM E-score” value falls from 0.0673 to -0.0765.

Going from GTGTCTCA to AAGTCTGA, the “PBM E-score” value falls from 0.237 to -0.293.

First: CGAGGCCG
Second: CCACATGG
The “PBM E-score” value of the first is lower: -0.21 for the first, 0.0595 for the second.

First: CACGTGTA
Second: GACATCTA
The “PBM E-score” value of the first is lower: 0.0359 for the first, 0.0767 for the second.

First: AGGAGAAG
Second: CTTGTCAA
The “PBM E-score” value of the first is lower: -0.156 for the first, -0.108 for the second.

Compared with AATAATAT, AGCCATTC is lower in “PBM E-score” value: 0.183 for the first, -0.00524 for the second.

Going from AGTACGAC to ACGCGAGC, the “PBM E-score” value falls from 0.183 to 0.0179.

Going from AGCTGTTG to TCGAGTAA, the “PBM E-score” value rises from -0.0227 to 0.0538.
